Assay results published in PubChem BioAssay AID1460 (National Center for Advancing Translational Sciences (NCATS), 2008).
Several values for one entry are separate records, joined by “and”; a condition that tells them apart may be missing. Identical values can stand only once. Screen size: about 270,000 compounds; about 5,800 (2.1%) were called active. The inconclusive results got no clear call from the source; some entries with a clear call stand among them for comparison. Calls come from the whole dose curve; as a rule, active = well fitted inhibition curve with a large enough effect; inconclusive = small, poorly fitted or top-dose-only effect; inactive = flat fitted curve, though single readings scatter. Where the call is inconclusive, the potency comes from a doubtful curve fit.

molecular target: Microtubule-associated protein tau (Homo sapiens) (UniProt P10636); assay: qHTS for Inhibitors of Tau Fibril Formation, Thioflavin T Binding; settings: recombinant tau K18 P301L (four-repeat tau fragment), heparin-induced fibrillization, ThT fluorescence; series mostly up to 57.4 µM; note: nearly all actives have a fitted effect of over 55% in size
UniProt P10636, sequence (P10636 whole entry, looked up, the tested form may be a part): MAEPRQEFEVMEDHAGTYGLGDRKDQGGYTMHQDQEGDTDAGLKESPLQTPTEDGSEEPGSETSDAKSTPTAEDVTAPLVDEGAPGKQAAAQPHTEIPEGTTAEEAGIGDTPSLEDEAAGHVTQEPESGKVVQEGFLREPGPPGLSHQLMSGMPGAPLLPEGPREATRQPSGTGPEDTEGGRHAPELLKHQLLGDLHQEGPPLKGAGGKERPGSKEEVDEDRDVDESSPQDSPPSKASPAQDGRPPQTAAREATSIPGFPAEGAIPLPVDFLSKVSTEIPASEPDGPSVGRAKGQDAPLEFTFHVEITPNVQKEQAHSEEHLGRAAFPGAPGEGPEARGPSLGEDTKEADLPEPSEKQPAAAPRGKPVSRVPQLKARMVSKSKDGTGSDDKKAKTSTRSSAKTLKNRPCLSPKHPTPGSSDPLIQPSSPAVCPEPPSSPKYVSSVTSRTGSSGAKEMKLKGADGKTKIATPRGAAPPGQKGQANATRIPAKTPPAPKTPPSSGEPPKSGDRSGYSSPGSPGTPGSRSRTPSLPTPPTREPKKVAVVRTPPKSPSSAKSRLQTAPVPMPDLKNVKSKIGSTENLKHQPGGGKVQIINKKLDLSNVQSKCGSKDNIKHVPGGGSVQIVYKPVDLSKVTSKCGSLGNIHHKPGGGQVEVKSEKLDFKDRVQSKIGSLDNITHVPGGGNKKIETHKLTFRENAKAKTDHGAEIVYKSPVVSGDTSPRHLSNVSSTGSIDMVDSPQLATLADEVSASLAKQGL
Method in brief: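 Heparin-induced fibrillization of the P301L-mutant K18 repeat-domain fragment of human tau was followed by ThT binding in quantitative high-throughput format.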
Potency is the fitted concentration of half-maximal effect; tags give direction and shape of the fitted curve.

Q: `Cc1ccc2nc(SCC(=O)N/N=C/c3ccco3)cc(C)c2c1` was tested. Which Potency did it give?
A: The Potency was inconclusive: 11.2 µM [inhibitor, partial curve].

Q: For `COc1ccc(-c2nc(NC(=O)Cn3c(=O)oc4ccccc43)sc2C)cc1`, which Potency is on record?
A: Its Potency is inconclusive: 11.2 µM [inhibitor, partial curve].

Q: Which Potency does the source give for `COc1ccc(C=C2C(=O)N(C)C(=O)N(C)C2=O)cc1COc1ccc(NC(C)=O)cc1` here?
A: The Potency was inconclusive: 10 µM [inhibitor, full curve].

Q: How did the Potency turn out when `Cc1ccccc1-n1c(/C=C/c2ccc(N(C)C)cc2)nc2ccccc2c1=O` was run?
A: Its Potency is inconclusive: 2.24 µM [activator, full curve].

Q: Which Potency does the source give for `O=[N+]([O-])c1cc([As](=O)(O)O)ccc1O` here?
A: The Potency was inconclusive: 17.8 µM [inhibitor, partial curve].

Q: With `COC(=O)c1ccc(N2C(=O)CC(N3CCC(O)(c4ccc(Br)cc4)CC3)C2=O)cc1` (stereo not given) as the molecule, how does the Potency read?
A: The Potency was inconclusive: 35.5 µM [inhibitor, partial curve].

Q: How did the Potency turn out when `COc1ccc(C(=O)NCCn2cc(SCc3ccc(C(F)(F)F)cc3)c3ccccc32)cc1OC` was run?
A: Its Potency is inconclusive: 8.91 µM [inhibitor, full curve].

Q: For `COC(=O)c1ccc(COc2cc(C)cc3oc(=O)c4c(c23)CCCC4)o1`, which Potency is on record?
A: The Potency was inconclusive: 22.4 µM [inhibitor, partial curve].

Q: Which Potency does the source give for `C=C1C(=O)O[C@@H]2C[C@@H](C)[C@H]3C=CC(=O)[C@]3(O)C[C@@H]12` here?
A: Its Potency is active: 15.8 µM.

Q: How did the Potency turn out when `Nc1ccc2nc3c(c(Cl)c2c1)CCCC3` was run?
A: The Potency was inconclusive: 8.91 µM [inhibitor, partial curve].

Q: For `Cc1ccc2c(c1)CC1(CN2C)C(=O)NC(=O)N(c2ccccc2C)C1=O` (stereo not given), which Potency is on record?
A: The Potency was inconclusive: 25.1 µM [inhibitor, single point].

Q: How did the Potency turn out when `CN(C)c1ccc(NC(=O)Oc2ccccc2)cc1` was run?
A: Its Potency is active: 14.1 µM.

Q: `C=CCn1c(O)c(C=Nc2ccc(N(CC)CC)cc2)c(=O)[nH]c1=O` was tested. Which Potency did it give?
A: Its Potency is inconclusive: 5.01 µM [inhibitor, partial curve].

Q: `CCN(CC)c1ncnc2c1ncn2[C@@H]1O[C@H](COP(=O)(O)OP(=O)(O)C(Br)(Br)P(=O)(O)O)[C@@H](O)[C@H]1O` was tested. Which Potency did it give?
A: The Potency was “inactive”.

Q: `C=CCN1C(=O)/C(=C/c2cc(C)n(-c3ccccn3)c2C)C(=O)NC1=S` was tested. Which Potency did it give?
A: The Potency was inconclusive: 22.4 µM [inhibitor, single point].

Q: With `O=C1NC(=O)N(c2ccc3c(c2)OCO3)C(=O)/C1=C/c1cccs1` as the molecule, how does the Potency read?
A: The Potency was inconclusive: 2.51 µM [inhibitor, full curve].

Q: For `N#Cc1c(/N=C/C2C(=O)NC(=S)NC2=O)sc2c1CCCC2`, which Potency is on record?
A: Its Potency is inconclusive: 14.1 µM [inhibitor, partial curve].

Q: Which Potency does the source give for `CC(C)N(Cc1ccccc1)C(=O)CCS(=O)(=O)c1ccc2c(c1)oc(=O)n2C` here?
A: Its Potency is inconclusive: 44.7 µM [inhibitor, single point].

Q: Which Potency does the source give for `CCOC(=O)c1c(-n2c(C)cc(/C=C3\C(=O)NC(=O)N(C)C3=O)c2C)sc2c1CCCC2` here?
A: Its Potency is inconclusive: 15.8 µM [inhibitor, partial curve].

Q: How did the Potency turn out when `CC(=O)C1CCC2C3CCC4=CC(=O)CC[C@@]4(C)C3CC[C@]12C` (stereo not given in full) was run?
A: Its Potency is inconclusive: 15.8 µM [inhibitor, partial curve].

Q: For `Cc1ccc(C(=O)O)cc1N=Nc1c(O)[nH]c(=O)[nH]c1=O`, which Potency is on record?
A: The Potency was inconclusive: 3.98 µM [inhibitor, partial curve].

Q: Which Potency does the source give for `CC(C)CCCC1(C)C=Cc2c(O)c3c(c(CCC(C)C)c2O1)OC12C(CC4CC1C(C)(C)OC2(CCC(C)C(=O)O)C4O)C3=O` (stereo not given) here?
A: The Potency was inconclusive: 44.7 µM [inhibitor, single point].

Q: `CCN1CC2(COC(=O)c3ccccc3N)CCC(OC)C34C5CC6C(OC)CC(O)(C5C6OC)C(O)(C(OC)C23)C14` (stereo not given) was tested. Which Potency did it give?
A: The Potency was “inactive”.

Q: For `COc1ccc2c(c[n+](C)c3c4cc5c(cc4ccc23)OCO5)c1OC`, which Potency is on record?
A: Its Potency is active: 15.8 µM and active: 12.6 µM.

Q: For `O=c1[nH]c(=O)n(Cc2ccccc2)c(O)c1/C=N/NCCO`, which Potency is on record?
A: Its Potency is inconclusive: 44.7 µM [inhibitor, single point].

Q: With `Cc1cc(C=C2C(=O)N(C)C(=S)N(C)C2=O)c(C)n1-c1cccnc1` as the molecule, how does the Potency read?
A: Its Potency is inconclusive: 2.82 µM [inhibitor, partial curve].

Q: How did the Potency turn out when `Cc1ccc(-n2ncc(C(=O)N3CCN(c4ccc(Cl)cc4)CC3)c2C2CCN(C(=O)OC(C)(C)C)CC2)c(C)c1` was run?
A: The Potency was inconclusive: 20 µM [inhibitor, single point].

Q: How did the Potency turn out when `COc1cccc(CN2CCN(C(=O)COc3ccc4ccccc4c3)CC2)c1` was run?
A: Its Potency is “inactive”.

Q: Which Potency does the source give for `COC(=O)C(O)C(O)(CCC(C)C)C(=O)OC1C(OC)=CC23CCCN2CCc2cc4c(cc2C13)OCO4` (stereo not given) here?
A: The Potency was “inactive”.

Q: Which Potency does the source give for `O=[N+]([O-])c1ccc2nc(CCCc3nc4ccc([N+](=O)[O-])cc4[nH]3)[nH]c2c1` here?
A: Its Potency is inconclusive: 17.8 µM [inhibitor, partial curve].

Q: Which Potency does the source give for `CC[C@@]1(O)C(=O)OCc2c1cc1n(c2=O)Cc2cc3c(N)cccc3nc2-1` here?
A: Its Potency is inconclusive: 17.8 µM [inhibitor, single point].

Q: How did the Potency turn out when `CN1CC[C@@]2(C)c3cc(O)ccc3N(C)C12` (stereo not given in full) was run?
A: The Potency was active: 7.08 µM.

Q: Which Potency does the source give for `COc1cc(CC2C(=O)N(C)C(=O)N(C)C2=O)ccc1OCc1ccccc1` here?
A: The Potency was inconclusive: 35.5 µM [inhibitor, single point].

Q: How did the Potency turn out when `COc1cc(OC)cc(C2(C#N)CCN(C)CC2)c1` was run?
A: The Potency was “inactive”.

Q: Which Potency does the source give for `COc1ccc2o/c(=N\O)c(C(=O)Nc3ccc(C)cc3)cc2c1` here?
A: Its Potency is active: 15.8 µM.

Q: With `O=c1c2cc(N3CCOCC3)ccc2[nH]c(=S)n1Cc1ccc(Cl)cc1` as the molecule, how does the Potency read?
A: Its Potency is inconclusive: 2.82 µM [inhibitor, full curve, poor fit].

Q: With `O=C(CSc1nc(-c2cccs2)nc2cc(=O)[nH]n12)Nc1ccc(F)cc1` as the molecule, how does the Potency read?
A: Its Potency is inconclusive: 39.8 µM [inhibitor, single point].

Q: For `CCNC(=S)NCCC1=c2ccccc2=N/C1=C\c1c(O)n(C)c(=O)n(C)c1=O`, which Potency is on record?
A: Its Potency is inconclusive: 25.1 µM [inhibitor, partial curve, poor fit].

Q: Which Potency does the source give for `C/C(=N\Nc1cccc2ccccc12)c1c(O)n(Cc2ccccc2)c(=O)[nH]c1=O` here?
A: The Potency was active: 17.8 µM.

Q: Which Potency does the source give for `C=C1C2CCC3[C@@](CC[C@@H]4C(C(=O)O)CC(OC5OC(CO)C(OS(=O)(=O)O)C(OS(=O)(=O)O)C5OC(=O)CC(C)C)C[C@]34C)(C2)C1O` (stereo not given in full) here?
A: The Potency was inconclusive: 39.8 µM [inhibitor, single point].
